Reference: PubChem BioAssay (NCATS)
The inconclusive results got no clear call from the source; some entries with a clear call stand among them for comparison. A potency beside an inconclusive call is a rough fit, not a confirmed value. The source made the active and inactive calls. The call rests on the fitted dose curve; in most records, active means well fitted inhibition curve with a large enough effect; inconclusive means small, poorly fitted or top-dose-only effect; inactive means flat fitted curve, though single readings scatter.

Target: Tyrosyl-DNA phosphodiesterase 1 (Homo sapiens) (UniProt Q9NUW8)
Assay: Confirmation Assay for Inhibitors of Tyrosyl-DNA Phosphodiesterase (TDP1) (AID 489007); further: nearly all actives have a fitted effect of over 40% in size
Conditions: recombinant human TDP1 enzymatic activity, dose-response
Outline: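 Compounds are preincubated 15 min at room temperature with 1 nM recombinant human Tdp1. The reaction starts on adding 15 nM FITC-phosphotyrosine DNA substrate, runs 5 min, and is detected by AlphaScreen beads after 10 min.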
Potency means the concentration at half of the fitted maximal effect; tags describe the fitted curve by direction and shape.

Chain of UniProt Q9NUW8 (Q9NUW8 whole entry, looked up): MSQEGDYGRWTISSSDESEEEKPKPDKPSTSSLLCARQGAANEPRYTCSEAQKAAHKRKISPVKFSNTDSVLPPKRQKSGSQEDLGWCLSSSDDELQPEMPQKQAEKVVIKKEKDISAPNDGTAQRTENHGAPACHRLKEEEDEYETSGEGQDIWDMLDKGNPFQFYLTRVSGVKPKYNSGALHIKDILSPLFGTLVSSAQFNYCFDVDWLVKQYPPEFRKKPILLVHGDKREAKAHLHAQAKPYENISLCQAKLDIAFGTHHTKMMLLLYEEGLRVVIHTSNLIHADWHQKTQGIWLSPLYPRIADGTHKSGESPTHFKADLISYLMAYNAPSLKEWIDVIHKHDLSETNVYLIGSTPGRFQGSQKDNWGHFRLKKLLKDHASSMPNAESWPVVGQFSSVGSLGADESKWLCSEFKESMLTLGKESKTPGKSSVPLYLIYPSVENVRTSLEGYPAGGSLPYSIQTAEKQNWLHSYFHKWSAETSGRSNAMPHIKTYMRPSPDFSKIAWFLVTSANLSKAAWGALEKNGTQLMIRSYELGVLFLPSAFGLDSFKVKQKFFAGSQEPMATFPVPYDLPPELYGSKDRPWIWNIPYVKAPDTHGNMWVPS

Potency, inconclusive:
Cn1c(SCC(=O)NC(=O)NCc2ccco2)nnc1-c1ccccc1 44.7 µM [inhibitor, partial curve]
Cc1cc(=O)oc2cc(OCc3ccc(C(=O)OCC(=O)NC4CCS(=O)(=O)C4)cc3)ccc12 (centres undefined) 50.1 µM [inhibitor, partial curve]
CC(=O)NCc1ccc(C(=O)CSc2nnc(-c3ccncc3)n2Cc2ccccc2)o1 100 µM [inhibitor, single point]
CN1C(=O)N(C)C2=NNC=NC2(O)C1=O (centres undefined) 14.1 µM [inhibitor, partial curve]
O=C1CCCN2N=C(SCC(=O)Nc3nccs3)SC2=N1 126 µM [inhibitor, single point]
Cc1[nH][nH]c(=O)c1C(c1ccc(-c2ccccc2C(=O)O)o1)c1c(C)[nH][nH]c1=O 50.1 µM [inhibitor, partial curve]
CCc1ccccc1Nc1nn2c(=O)c3ccc(C(=O)NCc4cccs4)cc3nc2s1 63.1 µM [inhibitor, partial curve]
Cc1ccc(NC(=O)CSc2nc(-c3cccs3)nc3cc(=O)[nH]n23)cc1C 35.5 µM [inhibitor, full curve]
CCn1cc(C(=O)O)c(=O)c2cnc(N3CCN(C(=S)NC(=O)c4ccccc4Cl)CC3)nc21 35.5 µM [inhibitor, full curve]
CN1C(=O)/C(=C/c2ccco2)SC1=Nc1cccc(C(=O)O)c1 7.94 µM [inhibitor, full curve]
C=CCn1c(SCc2nc3sc(C(=O)O)c(C)c3c(=O)[nH]2)nnc1-c1ccc(C(C)(C)C)cc1 25.1 µM [inhibitor, full curve]
O=C(COC(=O)/C=C/c1ccc(Br)o1)Nc1ccccc1F 63.1 µM [inhibitor, partial curve]
O=C(O)c1ccc(N/N=C/c2cc3cc4c(cc3nc2Cl)OCCO4)cc1 100 µM [inhibitor, partial curve]
C[C@H]1C(c2cccc(Cl)c2)=NN(c2ccccc2)[C@@H]1CO 112 µM [inhibitor, single point]
Cc1ccnc2nc(C(=O)Nc3nnc(-c4ccccc4)o3)nn12 20 µM [inhibitor, partial curve]
O=C(Nc1ccc2c(c1)Cc1ccccc1-2)c1ccncc1 100 µM [inhibitor, single point]
CC[C@H]1C(c2cccc(Cl)c2)=NN(c2ccccc2)[C@@H]1CO 31.6 µM [inhibitor, full curve]
CC1=CCC2C(=O)N(c3nc4ccccc4n3C)C(=O)C2C1 (centres undefined) 39.8 µM [inhibitor, single point]
c1cncc(-c2nccc(-n3ccnc3)n2)c1 25.1 µM [inhibitor, partial curve]
CCc1ccccc1Nc1nn2c(=O)c3ccc(C(=O)NCCCOC(C)C)cc3nc2s1 112 µM [inhibitor, partial curve]
Cc1cccc(C(=O)Nc2ccc(N3CCC(CCN4CCOCC4)CC3)c(C(=O)O)c2)c1 112 µM [inhibitor, single point]
Cc1cc(C)c(C(=O)/C=C/c2ccco2)c(=O)[nH]1 89.1 µM [inhibitor, partial curve]
Cc1cc(=O)[nH]c(SCC(=O)Nc2ccc(S(N)(=O)=O)cc2)n1 50.1 µM [inhibitor, partial curve]
Cc1csc2ncc(C(=O)NCc3ccco3)c(=O)n12 126 µM [inhibitor, single point]

Potency, active:
Cc1nn(Cc2ccc(F)cc2)c(C)c1NC(=O)c1cc2ncc(Br)cn2n1 44.7 µM
CCN(CC)C(=O)COc1ccc2oc(-c3ccco3)cc(=O)c2c1 112 µM
CCN(c1ccccc1)S(=O)(=O)c1cc(C(=O)O)ccc1C 12.6 µM
C=C1c2cccc(OC)c2O[C@H](C(=O)OCC)[C@@H]1CCCCCC 0.0251 µM
O=C(O)c1cccc(-n2cccc2/C=C2\SC(=O)N(Cc3ccccc3F)C2=O)c1 11.2 µM
